PMC4336329 (PLoS ONE, 2015)
Screen size: about 310,000 compounds; about 14,000 (4.5%) showed an effect of 50% or more. Effects have a minus sign here. Some of the results follow.

Biological target: human ether-à-go-go-related gene (hERG) potassium channel (human, UniProt Q12809)
Test: primary screen, population patch clamp on CHO cells stably expressing hERG
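Note: peak tail current of the secondary pulse compared with the same well before compound.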

Sequence of human ether-à-go-go-related gene (hERG) potassium channel (Q12809 whole entry, looked up): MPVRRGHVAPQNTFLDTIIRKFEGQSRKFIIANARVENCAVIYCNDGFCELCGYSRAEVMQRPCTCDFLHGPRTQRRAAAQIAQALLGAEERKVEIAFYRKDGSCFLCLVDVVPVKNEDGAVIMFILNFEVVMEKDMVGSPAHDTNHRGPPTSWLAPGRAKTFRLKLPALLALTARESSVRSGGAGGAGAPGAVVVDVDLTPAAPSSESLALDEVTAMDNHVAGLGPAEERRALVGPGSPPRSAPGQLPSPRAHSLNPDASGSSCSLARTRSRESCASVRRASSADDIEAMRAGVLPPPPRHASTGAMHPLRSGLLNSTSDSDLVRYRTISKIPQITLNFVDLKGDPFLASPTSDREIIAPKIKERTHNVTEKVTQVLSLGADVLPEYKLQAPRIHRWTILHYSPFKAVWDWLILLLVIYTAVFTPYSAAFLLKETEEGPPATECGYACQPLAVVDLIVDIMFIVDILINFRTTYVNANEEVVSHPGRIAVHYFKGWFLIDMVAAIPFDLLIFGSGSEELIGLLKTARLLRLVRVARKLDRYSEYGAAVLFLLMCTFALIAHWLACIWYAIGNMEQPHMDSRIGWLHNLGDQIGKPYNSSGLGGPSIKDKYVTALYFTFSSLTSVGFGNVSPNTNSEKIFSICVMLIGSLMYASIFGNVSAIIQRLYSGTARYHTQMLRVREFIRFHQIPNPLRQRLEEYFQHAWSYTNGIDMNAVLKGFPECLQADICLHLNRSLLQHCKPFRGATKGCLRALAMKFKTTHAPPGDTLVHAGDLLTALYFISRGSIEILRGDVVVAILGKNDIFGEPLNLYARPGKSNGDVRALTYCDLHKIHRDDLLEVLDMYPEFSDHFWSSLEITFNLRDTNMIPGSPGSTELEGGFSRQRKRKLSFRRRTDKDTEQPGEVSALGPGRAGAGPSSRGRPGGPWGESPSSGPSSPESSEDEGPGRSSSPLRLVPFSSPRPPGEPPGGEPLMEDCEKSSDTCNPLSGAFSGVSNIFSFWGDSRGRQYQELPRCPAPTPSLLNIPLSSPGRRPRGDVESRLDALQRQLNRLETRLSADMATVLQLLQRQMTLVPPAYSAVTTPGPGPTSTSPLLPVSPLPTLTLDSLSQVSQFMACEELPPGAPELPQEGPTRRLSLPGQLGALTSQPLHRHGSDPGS

Structure (SMILES)	hERG current change (%, negative = inhibition) at 10uM [%]
N#CCCNc1c(Cl)cc(Cl)cc1C(=O)O	10.5
Cc1nn(-c2ccccc2Cl)c(Cl)c1/C=N/Nc1cccc(C(=O)O)c1	21.1
O=C(Cn1cc(/C=N/NC(=O)c2cccc3ccccc23)c2ccccc21)Nc1ccc(F)cc1	11.7
O=C(COC(=O)c1ccc(Cl)nc1)Nc1ccccc1OC(F)F	-9.04
Cc1ccc(-n2nc3c(=S)[nH]nc(C)c3c2C)cc1	14.3
O=C(Nc1ccc2c(c1)OCO2)C1CC(=O)N(c2ccccc2)C1 (stereo not shown)	20.7
Cc1ccc(C(=O)NCC(=O)N2CCCCCCC2)cc1	7.06
Cn1c(NCc2ccccc2)cc(=O)n(C)c1=O	7.29
COC(=O)Cn1cnc2c(cnn2-c2ccc(OC)cc2)c1=O	15.7
O=[N+]([O-])c1ccc(Oc2cnc3ccccc3n2)cc1	7.44
CCOc1ccc(CCN2C(=O)C3C4CCC(O4)C3C2=O)cc1OCC (stereo not shown)	9.07
CC(C)[C@H](NC(=O)C1(c2ccccc2)CCN(C(=O)OC(C)(C)C)CC1)C(=O)O	-10.2
CC(=O)N1c2ccc(S(=O)(=O)N3CCC(C(=O)Nc4ccc(F)cc4)CC3)cc2CC1C (stereo not shown)	20.6
Cc1cccc(NC(=O)C(Cc2ccccc2)c2nn[nH]n2)c1C (stereo not shown)	9.83
O=C(CCC(=O)NC1CCCCCCC1)Nc1nnc(C(F)(F)F)s1	-8.52
O=C(OCc1nnc(-c2ccc(Br)cc2)o1)c1ccco1	-27.6
O=C(Nc1ccn(Cc2ccc(Cl)cc2)n1)c1ccc2c(c1)OCO2	-5.17
COc1ccc(S(=O)(=O)N2CCCCCC2)cc1N(C)S(=O)(=O)c1ccc(Cl)cc1	4.46
Cc1cc(C)nc(NS(=O)(=O)c2ccc(NC(=O)c3ccc4c(c3)OCO4)cc2)n1	-0.197
O=C1c2ccccc2C(=O)N1CCCc1nc2ccccc2c(=O)n1CCCn1ccnc1	-65
COc1cccc(OC)c1C(=O)N1CCOCC1	7.81
CC(=O)Nc1sc2c(c1C(c1ccc(F)cc1)N1CCOCC1)CCCC2 (stereo not shown)	-14.8

Structure (SMILES)	hERG current change (%, negative = inhibition) at 10uM [%]
N#CC1=C(S)N(c2ccccc2)C(c2ccc(-c3cccc(Cl)c3)o2)NC1=O (stereo not shown)	12.7
COc1ccc(NC(=O)CCCCCN2C(=O)c3cccc([N+](=O)[O-])c3C2=O)c(OC)c1	2.2
Cc1c(C)n(CC(O)CNc2ccccc2)c2ccccc12.O=C(O)C(=O)O (stereo not shown)	23.1
Cc1cc(=O)oc2c(C)c(OCC(=O)N3CCN(c4cccc(Cl)c4)CC3)ccc12	-34.2
N#CC1=C(N)OC2=C(C(=O)CCC2)C1c1ccsc1 (stereo not shown)	-6.32
COc1ccc(CNC(=O)Cc2c(C(=O)O)[nH]c3ccccc23)c(OC)c1	22.4
Cc1nnc(NC(=O)c2ccc(F)c(S(=O)(=O)N3CCCCC3)c2)s1	7.2
CC(=O)NC(=S)NNC(=O)C(c1ccccc1)c1ccccc1	28.8
CC(C)C[C@H](NC(=O)OC(C)(C)C)C(=O)NCC1CCC(C(=O)N[C@@H](Cc2ccccc2)C(=O)O)CC1 (stereo partly shown)	14.4
CCOC(=O)n1c(=O)n(Cc2c(Cl)cccc2Cl)c2ccccc21	0.418
CCN(CC)CCCNC(=O)CSc1nc(C)cc(C)n1	9.14
Cc1cc(OCCN2CCOCC2)nc2ccccc12.Cl	7.2
CCOC(=O)C1=C(c2ccccc2)Nc2ncnn2C1c1cccc(O)c1 (stereo not shown)	9.16
COc1cccc(-c2nc(CS(=O)(=O)CC(=O)N3CCN(C)CC3)c(C)o2)c1	8.02
CCC(c1nnc(SCC(=O)Nc2cccnc2Cl)n1-c1ccccc1)N(C)C (stereo not shown)	12
COc1ccc(-c2nc(CS(=O)CC(=O)NC3CCCC3)c(C)o2)cc1 (stereo not shown)	-16.4
CSc1ncc(CN2CCN(C3CCCC3)C(CCO)C2)cn1 (stereo not shown)	-0.478
COc1ccnc(Oc2ccccc2)c1-c1ncn[nH]1	15.1
CN(CC(=O)NCc1ccccc1)Cc1ccc(Cl)cc1	-22.9
CC(c1nc2ccccc2n1Cc1ccccc1)N1CCCCC1 (stereo not shown)	-65
CCOC(=O)c1ccc(NC(=O)CCc2nc(-c3ccccc3Cl)no2)cc1	12.2
COc1ccccc1S(=O)(=O)N1CCC(C(=O)O)(c2ccccc2)CC1	13.4

Structure (SMILES)	hERG current change (%, negative = inhibition) at 10uM [%]
Cc1ccc(CN=c2c([N+](=O)[O-])nn(-c3ccc(Cl)cc3)n2O)cc1	-14.7
COc1cc(NS(=O)(=O)c2ccc(NC(=S)NC(=O)c3ccco3)cc2)nc(OC)n1	-4.76
COC(=O)COc1ccc(/C=C2\SC(=O)N(CC(=O)Nc3ccccc3F)C2=O)cc1	14
Cc1cc(NC(=O)OC(C)C)ccc1-c1ccc(NC(=O)OC(C)C)cc1C	16.5
CCNS(=O)(=O)c1cc(OC)ccc1OC	5.41
Cc1ccc(NC(=O)CCC(=O)NNC(=S)Nc2ccccc2)c(C)c1	12.4
Cc1cccc(C)c1NC(=O)C1CCN(S(C)(=O)=O)CC1	3.64
O=C(O)c1ccccc1NCc1cccnc1	9.99
Cc1c(Cl)ccc(S(=O)(=O)N2CCN=C2c2ccccc2)c1Cl	0.0154
CCc1c(-c2ccccc2)nc2sc3c(c2c1N)CCCC3	13.6
COc1ccc(NC(=O)CN2C(=O)COc3ccc(S(=O)(=O)N4CCOCC4)cc32)c(OC)c1	10.3
COc1cccc(NC(=O)Nc2nnc(Cc3ccc(F)cc3)s2)c1	19
COc1ccccc1Nc1nc(N)nc(CSC(=S)N2CC(C)CC(C)C2)n1 (stereo not shown)	-9.46
CCC/C=N/NC(=O)c1[nH]c2c([N+](=O)[O-])cccc2c1C	0.591
O=C(CC1SC(=O)N(Cc2ccccc2)C1=O)Nc1nccs1 (stereo not shown)	3.22
Clc1ccc(COc2ccccc2-c2ccnc3ncnn23)cc1	-21.4
Cc1ccc(C)c(CN2CCC(n3nccc3NC(=O)C3CCCC3)CC2)c1	-69.9
CC1(C(=O)NC2CCCCC2)CCC(=O)N1Cc1ccc2c(c1)OCO2 (stereo not shown)	-5.82
O=C1CCN(S(=O)(=O)c2ccccc2)CCN1CCOCc1ccccc1	5.32
COC(=O)c1cn(C(=O)c2ccco2)c2ccccc12	3.16
O=C(/C=C/c1ccccc1)N1CCN(c2c(Cl)cccc2[N+](=O)[O-])CC1	-20.8
CCOC(=O)N1CCN(C(=O)C2CCCN(S(=O)(=O)c3ccc(OCC)cc3)C2)CC1 (stereo not shown)	-46.2

Structure (SMILES)	hERG current change (%, negative = inhibition) at 10uM [%]
CN1CC2([N+](=O)[O-])CC=C(Cl)C([N+](=O)[O-])(C1)C2 (stereo not shown)	16.2
COc1ccccc1C/C(N)=N/OC(=O)/C=C/c1ccccc1	-21.2
CCCCN1C(=O)C(O)(CC(=O)c2c(C)coc2C)c2ccccc21 (stereo not shown)	3.63
O=C(c1ccccc1)N1CCN(C(=O)c2cccnc2)CC1	9.88
N/N=C(\Cc1cscn1)c1ccc(O)cc1O	8.19
COC(=O)[C@H](C)NC(=O)NCc1ccccc1F	8.53
CC(C)c1ccc(-c2nnn(Cc3nc4ccccc4s3)n2)cc1	9
Cc1nn(Cc2ccccc2)c(C)c1C(=O)OCC(=O)c1cc(C)n(CC(F)(F)F)c1C	-2.57
FC(F)(F)c1cc(-c2ccccc2)nc2nc(N3CCOCC3)sc12	-4.29
COc1ccc(Cn2ccnc2SCC(=O)Nc2cccc(NC(C)=O)c2)cc1	16.6
Clc1ccc(OCCNCCc2ccccc2)cc1.O=C(O)C(=O)O	-73.7
CCOC(=O)c1c(NC(=O)COC(=O)/C=C/c2ccccc2)sc(C(=O)NC)c1C	10.2
CSc1nsc(SCC(=O)N2CCc3ccccc32)n1	13.4
CCCCCCOc1ccc(/C=c2\s/c(=C(/C#N)C(=O)NCc3ccco3)n(-c3ccccc3)c2=O)cc1	12.6
Cc1csc(=O)n1CCC(=O)OCC(=O)Nc1ccc(C(N)=O)cc1	12.4
Cc1ccc2cc(C#N)c(N3CCCN(C(=O)C4CCCO4)CC3)nc2c1C (stereo not shown)	-32.4
O=[N+]([O-])c1cccc(/C=N/N2CCN(Cc3ccc(Cl)cc3)CC2)c1	5.85
Cc1cccc(C)c1OCc1cc(C(=O)N(C)Cc2cc(C3CC3)n[nH]2)no1	-43
COc1cnc(-c2ccccc2)nc1Oc1cccc(C)c1C	-0.114
Cc1cccc(C(=O)Oc2ccc(/C=N/NC(=O)c3ccc(O)cc3)cc2)c1	28.6
Cc1c(C(=O)NCCCn2ccnc2)oc2ccccc12	10.4
CCCCCNC(=O)C(C)Sc1ccc(Cl)cc1 (stereo not shown)	10.9
